In the supplement of paper PMC9446081 one finds relative growth data, which are given here for 39 compounds.

Hit rate of the full screen: of about 39,000 compounds, about 220 (0.56%) showed activity. The list shows a part of the results.
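Note: static incubation at 37 °C against the wild-type strain, values averaged over two biological replicates.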

For the test, the system named is Escherichia coli K-12 BW25113. Description: relative growth (OD600 normalised to plate interquartile mean) (fraction); higher = less growth inhibition, active = 0.2 or less. Conditions: 50 µM; LB; incubation time: overnight (16-24 h).
Turning to `C[C@@H]1CN([C@@H](C)CO)C(=O)c2cc(NC(=O)C3CCCCC3)ccc2O[C@@H]1CN(C)Cc1ccc(C(=O)Nc2ccccc2N)cc1`, the relative growth is inactive: 1.01. For the compound `COc1cccc(S(=O)(=O)Nc2ccc3c(c2)[C@@H]2C[C@@H](CC(=O)NCc4ccccc4F)O[C@H](CO)[C@@H]2O3)c1`, the relative growth is inactive: 0.99. Consider `COc1ccc(NC(=O)Nc2ccc3c(c2)C(=O)N([C@@H](C)CO)C[C@H](C)[C@@H](CN(C)Cc2ccccc2)OCCCC[C@H](C)O3)cc1`, for which the relative growth is inactive: 0.968. For the compound `COC(=O)Nc1nc2cc(C(=O)c3ccc(F)cc3)ccc2[nH]1`, the relative growth is inactive: 1.18. Regarding `C[C@@H]1CN([C@H](C)CO)C(=O)Cc2cc(NC(=O)CCCCCC(=O)Nc3ccccc3N)ccc2O[C@@H]1CN(C)C(=O)Nc1ccc(F)cc1`, the relative growth is inactive: 0.977. With `Cc1noc(C)c1S(=O)(=O)Nc1ccc2c(c1)C(=O)N([C@@H](C)CO)C[C@H](C)[C@@H](CN(C)Cc1ccccc1)O2`, the relative growth is inactive: 0.968. Consider `CN(C)CCCCNC(=O)[C@@H]1C[C@@H]2C(=O)NCC(=O)N2[C@@H]1c1cccc(OCCO)c1`, for which the relative growth was inactive: 1.02. As for `C[C@@H]1CN([C@@H](C)CO)C(=O)c2cc(NC(=O)Nc3cccc4ccccc34)ccc2O[C@@H](C)CCCCO[C@@H]1CN(C)Cc1ccc(C(F)(F)F)cc1`, the relative growth was inactive: 1.03.

For `CCCC(=O)C1(c2ccccc2)CCN(C(=O)[C@@H](Cc2ccc(OC)cc2)NC(=O)[C@@H](N)Cc2cncn2C)CC1`, the relative growth is inactive: 1. For `C[C@@H]1CCCCO[C@@H](CN(C)CC2CC2)[C@@H](C)CN([C@H](C)CO)C(=O)c2cc(NC(=O)c3ccccc3)ccc2O1`, the relative growth is inactive: 1.01.

As to `C[C@H](CO)N1C[C@H](C)[C@@H](CN(C)C(=O)NC2CCCCC2)Oc2ccc(NC(=O)C3CC3)cc2CC1=O`, the relative growth is inactive: 1.02. On to `Cc1ccc(S(=O)(=O)N(C)C[C@@H]2Oc3ncc(C#CCC(C)C)cc3C(=O)N([C@H](C)CO)C[C@H]2C)cc1`, for which the relative growth was inactive: 1.04. As for `C[C@@H]1CN([C@@H](C)CO)C(=O)c2cc(NC(=O)Cn3cnnn3)ccc2O[C@@H]1CN(C)Cc1ccc(C(=O)O)cc1`, the relative growth was inactive: 0.989. On to `COc1ccc([Si](C)(C)[C@@H]2[C@@H](CCO)O[C@]3(C(=O)N(Cc4cccc(N5C(=O)c6ccccc6Oc6ccccc65)c4)c4ccccc43)[C@H]2C)cc1`, for which the relative growth was inactive: 1.03. As for `CC(CO)(CO)NS(=O)(=O)c1ccccc1`, the figure is inactive: 0.992; as for `C[C@@H]1CN([C@H](C)CO[Si](C)(C)C(C)(C)C)C(=O)c2cc(NC(=O)Nc3ccccc3)ccc2O[C@@H](C)CCCCO[C@H]1CN(C)S(=O)(=O)c1ccc(F)cc1`, inactive: 1.02. For the compound `Nc1nc(CO)cs1`, the relative growth was inactive: 0.983. On to `Cc1noc(C)c1NC(=O)Nc1ccc2c(c1)C(=O)N([C@H](C)CO)C[C@@H](C)[C@@H](CN(C)Cc1ccncc1)OCCCC[C@@H](C)O2`, for which the relative growth was inactive: 0.987. `NC(=S)N1CCCC1`: the relative growth was inactive: 1.01.

As to `C[C@H](CO)N1C[C@H](C)[C@H](CN(C)S(=O)(=O)c2cccs2)Oc2ccc(NS(=O)(=O)c3ccc(F)cc3)cc2CC1=O`, the relative growth was inactive: 1.02. Turning to `Cc1ccc(S[C@]2(C(=O)NCc3ccccc3)CC(=O)N(C3Cc4ccccc4C3)[C@@H]2c2ccc(CO)cc2I)cc1`, the relative growth is inactive: 0.997. Consider `C[C@@H]1CCCCO[C@H](CN(C)S(=O)(=O)c2cccs2)[C@H](C)CN([C@H](C)CO)C(=O)c2cc(NS(C)(=O)=O)ccc2O1`, for which the relative growth is inactive: 0.986. `C[C@@H]1CN([C@@H](C)CO)C(=O)c2cc(C#CCN(C)C)cnc2O[C@@H]1CN(C)S(=O)(=O)c1cn(C)cn1`: the relative growth was inactive: 0.998. As to `C[C@H]1CN([C@@H](C)CO)C(=O)CCCn2nncc2CO[C@@H]1CN(C)S(=O)(=O)c1ccc(-c2ccccc2)cc1`, the relative growth is inactive: 1. Turning to `C[C@H](CO)N1C[C@H](C)[C@H](CN(C)S(=O)(=O)c2ccccc2)Oc2ccc(NS(=O)(=O)c3ccccc3)cc2C1=O`, the relative growth is inactive: 0.972. As for `C[C@]12C(=O)N(CCC(=O)O)C(=O)[C@H]1[C@@H]1C=C[C@@H]2C1`, the figure is inactive: 0.975; as for `COc1ccc2c3c(n(c2c1)C)[C@@H](CO)N(C[C@]13CCN(CC1)C(=O)Nc1c(noc1C)C)C(=O)Nc1ccc(cc1)F`, inactive: 0.981; as for `C/C=C/c1ccc([C@H]2[C@H](CO)N(S(=O)(=O)Cc3ccccc3)C23CN(C(=O)C2CCOCC2)C3)cc1`, inactive: 1.01. Then `C[C@@H]1CCCCO[C@H](CN(C)C(=O)CCCN(C)C)[C@@H](C)CN([C@@H](C)CO)C(=O)c2cc(NC(=O)Nc3ccc(F)cc3)ccc2O1`, with inactive: 1.01; and `C[C@H](CO)N1C[C@H](C)[C@H](CN(C)Cc2ccc(C(F)(F)F)cc2)OCCCC[C@H](C)Oc2ccc(NS(=O)(=O)c3cccs3)cc2C1=O`, with inactive: 0.988. Then `COc1ccc(NC(=O)Nc2ccc3c(c2)C(=O)N([C@H](C)CO)C[C@H](C)[C@H](CN(C)C(=O)Nc2cccc4ccccc24)OCCCC[C@H](C)O3)cc1`, with inactive: 1.01; and `NC(=O)NCc1ccc2c(c1)OCO2`, with inactive: 0.995; and `C[C@@H]1CN([C@H](C)CO)C(=O)c2cc(C#CCN(C)C)cnc2O[C@H]1CN(C)Cc1ccc2c(c1)OCO2`, with inactive: 1.03. With `COCC(=O)N1C[C@H](C)[C@@H](OC)CN(C)C(=O)c2ccc(NC(=O)c3cc(C)on3)cc2OC[C@H]1C`, the relative growth is inactive: 1.02. As for `C[C@@H]1CN([C@H](C)CO)C(=O)c2c(c3ccccc3n2C)-c2ccccc2CO[C@H]1CN(C)Cc1cccc(F)c1`, the figure is inactive: 0.978. For `CCCCCCCCCCCCCCCCOCCCOP(=O)(O)CO[C@H](CO)Cn1ccc(N)nc1=O`, the relative growth was inactive: 0.983. Then `CC[C@@H](N)CC12CC3CC(CC(C3)C1)C2`, with inactive: 0.987; and `C[C@@H]1CCCCO[C@H](CN(C)S(C)(=O)=O)[C@@H](C)CN([C@@H](C)CO)C(=O)c2cc(NS(=O)(=O)c3cn(C)cn3)ccc2O1`, with inactive: 0.952; and `CC(C)(C)OC(=O)C[C@H]1CC=CC[C@@H](CC(=O)N[C@H](CO)Cc2ccccc2)C(=O)N[C@@H](C(C)(C)C)COC1=O`, with inactive: 0.981.
